The record followed here is publication PMC4336329 (PLoS ONE, 2015).

The campaign covered roughly 310,000 compounds. About 2,200 (0.71%) showed an effect of 50% or more. The effect is printed as a negative number. Some of the results follow.

human ether-à-go-go-related gene (hERG) potassium channel, sequence (Q12809 whole entry, looked up): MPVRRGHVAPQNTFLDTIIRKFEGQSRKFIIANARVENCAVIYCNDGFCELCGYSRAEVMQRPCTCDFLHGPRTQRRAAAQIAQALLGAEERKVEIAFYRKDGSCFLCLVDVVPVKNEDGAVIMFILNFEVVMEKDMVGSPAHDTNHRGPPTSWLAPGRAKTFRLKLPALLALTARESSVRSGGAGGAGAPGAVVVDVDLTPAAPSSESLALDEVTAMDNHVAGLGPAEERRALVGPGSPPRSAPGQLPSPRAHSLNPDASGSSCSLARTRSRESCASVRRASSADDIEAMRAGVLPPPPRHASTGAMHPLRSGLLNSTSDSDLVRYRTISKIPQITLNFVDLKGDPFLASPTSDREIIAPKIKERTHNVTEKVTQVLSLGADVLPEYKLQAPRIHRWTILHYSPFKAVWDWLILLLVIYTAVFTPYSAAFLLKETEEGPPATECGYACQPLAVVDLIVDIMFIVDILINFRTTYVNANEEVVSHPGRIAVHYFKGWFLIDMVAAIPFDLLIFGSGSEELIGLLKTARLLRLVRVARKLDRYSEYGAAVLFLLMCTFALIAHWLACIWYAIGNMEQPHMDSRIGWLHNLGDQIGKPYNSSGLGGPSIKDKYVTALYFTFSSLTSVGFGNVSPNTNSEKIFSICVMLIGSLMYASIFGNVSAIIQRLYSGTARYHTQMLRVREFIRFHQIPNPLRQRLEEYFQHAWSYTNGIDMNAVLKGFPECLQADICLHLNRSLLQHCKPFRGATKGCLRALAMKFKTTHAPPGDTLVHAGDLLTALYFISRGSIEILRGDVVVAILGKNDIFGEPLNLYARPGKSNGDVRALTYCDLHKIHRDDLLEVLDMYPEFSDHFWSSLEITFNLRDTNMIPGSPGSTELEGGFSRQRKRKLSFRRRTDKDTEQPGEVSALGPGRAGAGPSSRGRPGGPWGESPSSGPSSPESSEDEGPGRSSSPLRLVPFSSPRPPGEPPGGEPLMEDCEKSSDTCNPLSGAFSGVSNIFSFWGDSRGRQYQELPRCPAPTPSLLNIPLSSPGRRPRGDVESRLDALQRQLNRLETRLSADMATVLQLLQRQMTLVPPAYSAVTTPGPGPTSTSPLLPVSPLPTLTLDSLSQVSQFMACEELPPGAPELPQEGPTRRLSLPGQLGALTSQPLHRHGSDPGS

The experiment concerns the target human ether-à-go-go-related gene (hERG) potassium channel (human, UniProt Q12809). Description: primary screen, population patch clamp on CHO cells stably expressing hERG.
Regarding `CCOCCN1CCC(OC(C)=O)C(C)C1.Cl` (stereo not drawn), the “hERG current change (%, negative = inhibition) at 1uM” value is reported as 15.1%.

Turning to `Cc1ccc2nc(SCC(=O)Nc3ccc(Cl)cc3)nc(=O)n2c1`, the “hERG current change (%, negative = inhibition) at 1uM” value is given as 3.35%.

On to `CSc1ccc(C2CC(=O)Nc3c2c(=O)n(C)c(=O)n3C)cc1` (stereo not drawn), for which the “hERG current change (%, negative = inhibition) at 1uM” value turned out to be 11.3%.

Regarding `CC(=O)Nc1ccc(S(=O)(=O)NNC(=O)COc2ccc(Cl)cc2Cl)cc1`, the “hERG current change (%, negative = inhibition) at 1uM” value was 14.5%.

As for `O=C(COC(=O)c1ccc(O)cc1)NC1CCCCCC1`, the “hERG current change (%, negative = inhibition) at 1uM” value turned out to be 7.64%.

Take `CCOC(=O)c1sc(N)nc1-c1ccccc1`: the “hERG current change (%, negative = inhibition) at 1uM” value is 3.34%.

Regarding `O=S(=O)(Nc1cccc2c1ccc1cccn12)c1cccs1`, the “hERG current change (%, negative = inhibition) at 1uM” value was -10.3%.

Turning to `O=C(O)CCN1C(=O)/C(=C\c2cccc(Oc3ccccc3)c2)SC1=S`, the “hERG current change (%, negative = inhibition) at 1uM” value is listed as 13%.

Consider `O=C1NC2(CCCCCC2)C(=O)N1Cc1ccc([N+](=O)[O-])cc1`, for which the “hERG current change (%, negative = inhibition) at 1uM” value was determined as 9.44%.

Turning to `Cc1c(C(=O)N2CCN(S(C)(=O)=O)CC2)oc2ccccc12`, the “hERG current change (%, negative = inhibition) at 1uM” value is reported as 9.58%.

Take `COc1ccc(/C=N/NC(=O)COc2ccc3ccccc3c2)c(C(=O)O)c1OC`: the “hERG current change (%, negative = inhibition) at 1uM” value came out at 11.2%.

Consider `COc1ccc(-n2c(NC(=O)c3ccco3)c(C#N)c3nc4ccccc4nc32)cc1`, for which the “hERG current change (%, negative = inhibition) at 1uM” value was 18%.

On to `CC(C)(C)NC(=O)CN(C(=O)CCC(=O)Nc1nccs1)c1ccc2c(c1)OCCO2`, for which the “hERG current change (%, negative = inhibition) at 1uM” value was found to be 9.55%.

In the case of `CCNC(=O)c1ccccc1CCc1ccccc1`, the “hERG current change (%, negative = inhibition) at 1uM” value was determined as 4.92%.

In the case of `Cc1ccc(/C=N/NC(=O)CN(Cc2ccccc2)S(=O)(=O)c2ccc3c(c2)OCCO3)cc1`, the “hERG current change (%, negative = inhibition) at 1uM” value is reported as 15.4%.

On to `O=C(NCCCN1CCCC1=O)c1cc2c(s1)CCCCC2`, for which the “hERG current change (%, negative = inhibition) at 1uM” value was 7.34%.

On to `Cc1ccc(S(=O)(=O)n2nc(OC(=O)C(C)(C)C)cc2N)cc1`, for which the “hERG current change (%, negative = inhibition) at 1uM” value is recorded as 8.94%.

`NS(=O)(=O)c1cccc(NC(=O)COc2ncnc3c2cnn3-c2ccccc2)c1`: the “hERG current change (%, negative = inhibition) at 1uM” value is 5.93%.

Consider `CCCCC(NC(C)=O)c1nc2ccccc2n1CCC` (stereo not drawn), for which the “hERG current change (%, negative = inhibition) at 1uM” value was -2.31%.

With `c1ccc(N/N=C(\Cc2ncc[nH]2)c2ccccc2)cc1`, the “hERG current change (%, negative = inhibition) at 1uM” value was determined as 7.52%.

As to `CC(=O)c1ccc(NC(=O)c2ccc3c(c2)C(=O)N(c2ccccn2)C3=O)cc1`, the “hERG current change (%, negative = inhibition) at 1uM” value is reported as 14.7%.

Consider `CC1CCC(NC(=O)COC(=O)CNC(=O)c2ccc3ccccc3c2)CC1` (stereo not drawn), for which the “hERG current change (%, negative = inhibition) at 1uM” value was found to be 9.36%.

Take `C=CCNCC#CCOc1ccc(OC)cc1.O=C(O)C(=O)O`: the “hERG current change (%, negative = inhibition) at 1uM” value is given as -0.956%.

Consider `COc1ccc(N2CC(C)Cn3c2nc2c3c(=O)n(CCN3CCOCC3)c(=O)n2C)cc1` (stereo not drawn), for which the “hERG current change (%, negative = inhibition) at 1uM” value is 2.17%.

Regarding `Cc1ccc(S(=O)(=O)N2CCN(C(=O)Cc3sc(C)nc3-c3ccc(F)cc3)CC2)c(C)c1`, the “hERG current change (%, negative = inhibition) at 1uM” value stood at 6.34%.

`CCOc1cccc(CNn2cnnc2)c1OCc1ccccc1Cl`: the “hERG current change (%, negative = inhibition) at 1uM” value is 3.2%.

As for `COc1ccc(NC(=O)CC2C(=O)N(c3ccc(F)cc3)C(=S)N2NC(=O)c2ccc(Cl)cc2)cc1` (stereo not drawn), the “hERG current change (%, negative = inhibition) at 1uM” value came to 3.09%.

As for `COc1ccc(C(C)NC(=O)C2CCCC2)cc1OC` (stereo not drawn), the “hERG current change (%, negative = inhibition) at 1uM” value came to 13.4%.

`COCCn1c(SCC(=O)c2ccc(F)cc2)nnc1C(C)C`: the “hERG current change (%, negative = inhibition) at 1uM” value is 8.05%.

On to `O=C(Cn1c(=O)sc2ccccc21)Nc1ccc2c(c1)OCCO2`, for which the “hERG current change (%, negative = inhibition) at 1uM” value was found to be 15%.

For the molecule `CC(=O)c1cccc(NC(=O)CSc2n[nH]c(-c3ccncc3)n2)c1`, the “hERG current change (%, negative = inhibition) at 1uM” value is 15%.

For the molecule `CC1CCCC/C1=N\Nc1ccc(S(N)(=O)=O)cc1[N+](=O)[O-]` (stereo not drawn), the “hERG current change (%, negative = inhibition) at 1uM” value was found to be 15%.

Consider `CSc1ccc(C(=S)N2CCCCCC2)cc1`, for which the “hERG current change (%, negative = inhibition) at 1uM” value worked out at 12.2%.

Turning to `Nc1ccc(S(=O)(=O)Nc2ccc(S(N)(=O)=O)cc2)cc1`, the “hERG current change (%, negative = inhibition) at 1uM” value was determined as 10.8%.

On to `Nc1nc(SCc2nc3sc4c(c3c(=O)[nH]2)CCCC4)n[nH]1`, for which the “hERG current change (%, negative = inhibition) at 1uM” value is on record as 7.65%.

Regarding `O=c1c2ccc([N+](=O)[O-])c3cccc(c32)c2nc3ccccc3n12`, the “hERG current change (%, negative = inhibition) at 1uM” value is on record as 11.9%.

For the molecule `CC(=NCCCN1CCCCC1)c1c(O)n(Cc2ccccc2)c(=O)[nH]c1=O`, the “hERG current change (%, negative = inhibition) at 1uM” value is on record as -25.8%.

On to `Cc1cccc(CS(=O)(=O)Cc2ccc(C(=O)NCc3ccco3)o2)c1`, for which the “hERG current change (%, negative = inhibition) at 1uM” value was found to be 3.38%.

In the case of `O=C(Cn1cc(C(F)(F)F)ccc1=O)N/N=C/c1ccccc1O`, the “hERG current change (%, negative = inhibition) at 1uM” value turned out to be 1.57%.

As for `Cc1cc(C(=O)N/N=C/c2ccc(N3CCOCC3)cc2)c(C)o1`, the “hERG current change (%, negative = inhibition) at 1uM” value is recorded as 11.3%.

Regarding `CCCCn1c(=O)c(C(=O)Nc2ccccc2F)c(O)c2ccccc21`, the “hERG current change (%, negative = inhibition) at 1uM” value was found to be 13.8%.

With `CCOc1ccc(S(=O)(=O)NCCC(=O)N2CCN(Cc3ccccc3)CC2)cc1`, the “hERG current change (%, negative = inhibition) at 1uM” value is -28.6%.

As to `COc1cccc(C(=O)OCc2ccccc2C#N)c1O`, the “hERG current change (%, negative = inhibition) at 1uM” value was found to be 16.7%.

`COCCN(C(=O)CCC(=O)Nc1cc(C)on1)C(C(=O)NC1CCCC1)c1ccc(C)cc1` (stereo not drawn): the “hERG current change (%, negative = inhibition) at 1uM” value stood at 6.94%.

As for `N#Cc1ccccc1OCC(=O)Nc1nnc(C2CC2)s1`, the “hERG current change (%, negative = inhibition) at 1uM” value was 3.71%.
